Laboratory results as given in US20230143604A1, “QW DOSING OF GIP RECEPTOR AGONIST PEPTIDE COMPOUNDS AND USES THEREOF” (TAKEDA PHARMACEUTICAL COMPANY LIMITED, priority 2020, published 2023).
pEC50: −log10 of the molar value. Like-named read-outs stand apart in the source and are kept apart here. At least one peptide structure holds a part that was inferred or is arguable (an end, a ring closure or a residue). Starred links: 1 amine or outer side, 2 acyl side, 3 side chain; linkers in the order of their positions; H or OH if unused. Non-standard residues stand in square brackets, D forms with d. Residues, ends and D or L forms follow the SMILES beside them. Groups on a side chain read outwards from the residue. *: point of attachment. C18 diacid = O=C(O)CCCCCCCCCCCCCCCCC(=O)*; C17 diacid = O=C(O)CCCCCCCCCCCCCCCC(=O)*; γGlu = O=C(O)[C@H](CCC(=O)[*:2])N[*:1]; NMeY = CN[C@@H](Cc1ccc(O)cc1)C(=O)O; AEEA = NCCOCCOCC(=O)O; Aib = CC(C)(N)C(=O)O

Key:
[1] = tested on: C57BL/6J mice; assay: Oral glucose tolerance test (OGTT); type: in vivo; conditions: 3 nmol/kg s.c.
Summary of the method: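 Peptide or vehicle given s.c. at 0.1, 0.3, 3 or 10 nmol/kg (peptide-dependent), 24 h before oral 50% dextrose at 5 ml/kg unless stated otherwise. Blood glucose read at 0, 15, 30 and 60 min. % inhibition = (1−(AUC cpd−AUC naïve)/(AUC veh−AUC naïve))×100.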

[2] = biological target: T1, human GLP-1R (Homo sapiens, UniProt P43220); assay: Human GLP1R agonist activity, intracellular cAMP accumulation; type: cell-based
T1 construct: HEK-293T cells overexpressing full-length human GLP-1R; FLAG (N); host or cells: HEK-293T
T1 sequence (P43220 24-463): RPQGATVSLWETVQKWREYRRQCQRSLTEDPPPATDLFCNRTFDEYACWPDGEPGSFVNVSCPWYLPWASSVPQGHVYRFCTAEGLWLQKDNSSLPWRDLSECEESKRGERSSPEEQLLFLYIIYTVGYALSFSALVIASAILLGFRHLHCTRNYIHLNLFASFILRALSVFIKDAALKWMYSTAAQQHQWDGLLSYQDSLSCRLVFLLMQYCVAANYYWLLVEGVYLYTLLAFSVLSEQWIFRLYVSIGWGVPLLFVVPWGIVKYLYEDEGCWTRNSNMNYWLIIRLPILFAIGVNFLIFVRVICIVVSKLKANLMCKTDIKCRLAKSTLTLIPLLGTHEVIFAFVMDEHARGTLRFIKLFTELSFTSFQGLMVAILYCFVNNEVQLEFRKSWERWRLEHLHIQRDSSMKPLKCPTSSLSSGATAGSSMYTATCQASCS
Summary of the method: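 Frozen assay-ready cells washed and resuspended at 4×10^5 cells/mL in Krebs Ringer buffer, then incubated with compound 1 hr at room temperature in the dark. cAMP read by HTRF (anti-cAMP antibody, d2-cAMP tracer). Normalised to 1 nm GLP-1 (100%) and DMSO (0%).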

[3] = 24 hours before glucose loading
[4] = read-out: Human GLP1R cAMP EC50, HEK293T, HEK-293T cells overexpressing human GLP-1R, 1 hr
[5] = HEK-293T cells overexpressing human GLP-1R, 1 hr, read-out: Human GLP1R cAMP EC50, HEK293T

Row | SMILES | Oral Glucose Tolerance Test Percent decrease in blood glucose AUC (%) over 60 mins [1, 3] | pEC50 [2, 4] | pEC50 [2, 5] | Oral Glucose Tolerance Test Percent decrease in blood glucose AUC (%) over 60 mins ([1]; 72 hrs pretreatment)
1 | CC[C@H](C)[C@H](NC(=O)[C@H](CO)NC(=O)[C@H](Cc1ccc(O)cc1)NC(=O)[C@H](CC(=O)O)NC(=O)[C@H](CO)NC(=O)[C@@H](NC(=O)[C@H](Cc1ccccc1)NC(=O)[C@@H](NC(=O)CNC(=O)[C@H](CCC(=O)O)NC(=O)C(C)(C)NC(=O)[C@H](Cc1ccc(O)cc1)NC)[C@@H](C)O)[C@@H](C)CC)C(=O)N[C@@H](C)C(=O)N[C@@H](CC(C)C)C(=O)N[C@@H](CC(=O)O)C(=O)N[C@@H](CCCNC(=N)N)C(=O)NC(C)(C)C(=O)N[C@@H](C)C(=O)N[C@@H](CCC(N)=O)C(=O)NC(C)(C)C(=O)N[C@@H](CC(=O)O)C(=O)N[C@@H](Cc1ccccc1)C(=O)N[C@H](C(=O)N[C@@H](CC(N)=O)C(=O)N[C@@H](Cc1c[nH]c2ccccc12)C(=O)N[C@@H](CC(C)C)C(=O)N[C@@H](CC(C)C)C(=O)N[C@@H](C)C(=O)N[C@@H](CCCCNC(=O)COCCOCCNC(=O)COCCOCCNC(=O)CC[C@H](NC(=O)CC[C@H](NC(=O)CCCCCCCCCCCCCCCCC(=O)O)C(=O)O)C(=O)O)C(=O)N[C@@H](CCCNC(=N)N)C(=O)N1CCC[C@H]1C(=O)N[C@@H](CO)C(=O)N[C@@H](CO)C(=O)NCC(=O)N[C@@H](C)C(=O)N1CCC[C@H]1C(=O)N1CCC[C@H]1C(=O)N1CCC[C@H]1C(=O)N[C@@H](CO)C(N)=O)C(C)C [Compound 58] (H-[NMeY][Aib]EGTFISDYSIALDR[Aib]AQ[Aib]DFVNWLLAK([AEEA-AEEA-γGlu-γGlu-C18 diacid])RPSSGAPPPS-NH2) | 34% (3 nmol/kg) | < 6.00 |  | 
2 | CC[C@H](C)[C@H](NC(=O)[C@H](Cc1ccccc1)NC(=O)[C@@H](NC(=O)CNC(=O)[C@H](CCC(=O)O)NC(=O)C(C)(C)NC(=O)[C@H](Cc1ccc(O)cc1)NC)[C@@H](C)O)C(=O)N[C@@H](CO)C(=O)N[C@@H](CC(=O)O)C(=O)N[C@@H](Cc1ccc(O)cc1)C(=O)N[C@@H](CO)C(=O)N[C@H](C(=O)NC(C)(C)C(=O)N[C@@H](CC(C)C)C(=O)N[C@@H](CC(=O)O)C(=O)N[C@@H](CCCNC(=N)N)C(=O)NC(C)(C)C(=O)N[C@@H](CCCCNC(=O)COCCOCCNC(=O)COCCOCCNC(=O)CC[C@H](NC(=O)CC[C@H](NC(=O)CCCCCCCCCCCCCCCCC(=O)O)C(=O)O)C(=O)O)C(=O)N[C@@H](CCC(N)=O)C(=O)NC(C)(C)C(=O)N[C@@H](CC(=O)O)C(=O)N[C@@H](Cc1ccccc1)C(=O)N[C@H](C(=O)N[C@@H](CC(N)=O)C(=O)N[C@@H](Cc1c[nH]c2ccccc12)C(=O)N[C@@H](CC(C)C)C(=O)N[C@@H](CC(C)C)C(=O)N[C@@H](C)C(=O)N[C@@H](CCC(N)=O)C(=O)N[C@@H](CO)C(=O)N1CCC[C@H]1C(=O)NCC(=O)O)C(C)C)[C@@H](C)CC [Compound 87] (H-[NMeY][Aib]EGTFISDYSI[Aib]LDR[Aib]K([AEEA-AEEA-γGlu-γGlu-C18 diacid])Q[Aib]DFVNWLLAQSPG-OH) | 50% (3 nmol/kg) |  | < 6.00 | 
3 | CC[C@H](C)[C@H](NC(=O)[C@H](CO)NC(=O)[C@H](Cc1ccc(O)cc1)NC(=O)[C@H](CC(=O)O)NC(=O)[C@H](CO)NC(=O)[C@@H](NC(=O)[C@H](Cc1ccccc1)NC(=O)[C@@H](NC(=O)CNC(=O)[C@H](CCC(=O)O)NC(=O)C(C)(C)NC(=O)[C@H](Cc1ccc(O)cc1)NC)[C@@H](C)O)[C@@H](C)CC)C(=O)N[C@@H](C)C(=O)N[C@@H](CC(C)C)C(=O)N[C@@H](CC(=O)O)C(=O)N[C@@H](CCCNC(=N)N)C(=O)NC(C)(C)C(=O)N[C@@H](C)C(=O)N[C@@H](CCC(N)=O)C(=O)NC(C)(C)C(=O)N[C@@H](CC(=O)O)C(=O)N[C@@H](Cc1ccccc1)C(=O)N[C@H](C(=O)N[C@@H](CC(N)=O)C(=O)N[C@@H](Cc1c[nH]c2ccccc12)C(=O)N[C@@H](CC(C)C)C(=O)N[C@@H](CC(C)C)C(=O)N[C@@H](C)C(=O)N[C@@H](CCCCNC(=O)COCCOCCNC(=O)COCCOCCNC(=O)CC[C@H](NC(=O)CC[C@H](NC(=O)CCCCCCCCCCCCCCCCC(=O)O)C(=O)O)C(=O)O)C(=O)N[C@@H](CCCNC(=N)N)C(=O)NCC(=O)NCC(=O)NCC(=O)NCC(=O)N[C@@H](CO)C(N)=O)C(C)C [Compound 57] (H-[NMeY][Aib]EGTFISDYSIALDR[Aib]AQ[Aib]DFVNWLLAK([AEEA-AEEA-γGlu-γGlu-C18 diacid])RGGGGS-NH2) | 48% (3 nmol/kg) |  | < 6.00 | 
4 | CC[C@H](C)[C@H](NC(=O)[C@H](Cc1ccccc1)NC(=O)[C@@H](NC(=O)CNC(=O)[C@H](CCC(=O)O)NC(=O)C(C)(C)NC(=O)[C@H](Cc1ccc(O)cc1)NC)[C@@H](C)O)C(=O)N[C@@H](CO)C(=O)N[C@@H](CC(=O)O)C(=O)N[C@@H](Cc1ccc(O)cc1)C(=O)N[C@@H](CO)C(=O)N[C@H](C(=O)NC(C)(C)C(=O)N[C@@H](CC(C)C)C(=O)N[C@@H](CC(=O)O)C(=O)N[C@@H](CCCNC(=N)N)C(=O)NC(C)(C)C(=O)N[C@@H](C)C(=O)N[C@@H](CCC(N)=O)C(=O)NC(C)(C)C(=O)N[C@@H](CC(N)=O)C(=O)N[C@@H](Cc1ccccc1)C(=O)N[C@H](C(=O)N[C@@H](CC(N)=O)C(=O)N[C@@H](Cc1c[nH]c2ccccc12)C(=O)N[C@@H](CC(C)C)C(=O)N[C@@H](CC(C)C)C(=O)N[C@@H](C)C(=O)N[C@@H](CCC(N)=O)C(=O)N[C@@H](CCCCNC(=O)COCCOCCNC(=O)COCCOCCNC(=O)CC[C@H](NC(=O)CC[C@H](NC(=O)CCCCCCCCCCCCCCCC(=O)O)C(=O)O)C(=O)O)C(=O)NCC(=O)NCC(=O)NCC(=O)NCC(=O)N[C@@H](CO)C(N)=O)C(C)C)[C@@H](C)CC [Compound 33] (H-[NMeY][Aib]EGTFISDYSI[Aib]LDR[Aib]AQ[Aib]NFVNWLLAQK([AEEA-AEEA-γGlu-γGlu-C17 diacid])GGGGS-NH2) | 72% (3 nmol/kg) |  | 6.36 | 
5 | CC[C@H](C)[C@H](NC(=O)[C@H](Cc1ccccc1)NC(=O)[C@@H](NC(=O)CNC(=O)[C@H](CCC(=O)O)NC(=O)C(C)(C)NC(=O)[C@H](Cc1ccc(O)cc1)NC)[C@@H](C)O)C(=O)N[C@@H](CO)C(=O)N[C@@H](CC(=O)O)C(=O)N[C@@H](Cc1ccc(O)cc1)C(=O)N[C@@H](CO)C(=O)N[C@H](C(=O)NC(C)(C)C(=O)N[C@@H](CC(C)C)C(=O)N[C@@H](CC(=O)O)C(=O)N[C@@H](CCCNC(=N)N)C(=O)N[C@@H](CCCCNC(=O)COCCOCCNC(=O)COCCOCCNC(=O)CC[C@H](NC(=O)CC[C@H](NC(=O)CCCCCCCCCCCCCCCCC(=O)O)C(=O)O)C(=O)O)C(=O)N[C@@H](C)C(=O)N[C@@H](CCC(N)=O)C(=O)NC(C)(C)C(=O)N[C@@H](CC(N)=O)C(=O)N[C@@H](Cc1ccccc1)C(=O)N[C@H](C(=O)N[C@@H](CC(N)=O)C(=O)N[C@@H](Cc1c[nH]c2ccccc12)C(=O)N[C@@H](CC(C)C)C(=O)N[C@@H](CC(C)C)C(=O)N[C@@H](C)C(=O)N[C@@H](CCC(N)=O)C(=O)N[C@@H](CCCNC(=N)N)C(=O)N1CCC[C@H]1C(=O)N[C@@H](CO)C(=O)N[C@@H](CO)C(=O)NCC(=O)N[C@@H](C)C(=O)N1CCC[C@H]1C(=O)N1CCC[C@H]1C(=O)N1CCC[C@H]1C(=O)N[C@@H](CO)C(N)=O)C(C)C)[C@@H](C)CC [Compound 26] (H-[NMeY][Aib]EGTFISDYSI[Aib]LDRK([AEEA-AEEA-γGlu-γGlu-C18 diacid])AQ[Aib]NFVNWLLAQRPSSGAPPPS-NH2) |  | 7.41 |  | 44% (3 nmol/kg); 72 hrs
